Assay results as given in patent publication US20160130324A1 (SHIRE HUMAN GENETIC THERAPIES, published 2016).

T1: rhC1s (human, UniProt P09871 16-688)
T1 construct: Enzyme of the colorimetric peptide cleavage assay; Human is read from the printed label 'rhC1s'
T1 sequence (looked up): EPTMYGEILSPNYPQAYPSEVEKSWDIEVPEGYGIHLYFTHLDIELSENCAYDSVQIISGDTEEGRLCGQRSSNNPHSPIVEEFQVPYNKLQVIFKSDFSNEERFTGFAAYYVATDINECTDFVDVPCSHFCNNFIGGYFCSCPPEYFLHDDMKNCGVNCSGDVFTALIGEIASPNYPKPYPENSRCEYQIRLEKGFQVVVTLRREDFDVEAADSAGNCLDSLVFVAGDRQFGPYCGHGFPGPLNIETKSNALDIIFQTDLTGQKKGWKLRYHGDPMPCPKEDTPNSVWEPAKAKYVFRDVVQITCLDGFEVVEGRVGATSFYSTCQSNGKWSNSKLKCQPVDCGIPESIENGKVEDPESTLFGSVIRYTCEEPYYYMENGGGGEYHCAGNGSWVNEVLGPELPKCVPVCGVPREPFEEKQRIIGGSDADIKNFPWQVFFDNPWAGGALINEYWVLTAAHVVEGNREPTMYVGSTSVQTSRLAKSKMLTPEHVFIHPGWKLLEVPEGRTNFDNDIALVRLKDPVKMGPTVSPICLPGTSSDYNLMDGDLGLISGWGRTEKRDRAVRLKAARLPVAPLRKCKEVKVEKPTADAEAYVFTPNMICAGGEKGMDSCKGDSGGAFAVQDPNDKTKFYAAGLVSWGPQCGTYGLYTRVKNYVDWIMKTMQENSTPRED

T2: biotin-C1s
T2 construct: Used in the functional ELISA that measures the C1s/C1-INH complex
T2 sequence (P09871 16-688, species assumed, looked up): T1 sequence (looked up)

B1: Fc-C1inh(Tr) (Fc fusion)
Fc fusion chain: [letters of human IgG1 Fc not shown]GSFCPGPVTLCSDLESHSTEAVLGDALVDFSLKLYHAFSAMKKVETNMAFSPFSIASLLTQVLLGAGENTKTNLESILSYPKDFTCVHQALKGFTTKGVTSVSQIFHSPDLAIRDTFVNASRTLYSSSPRVLSNNSDANLELINTWVAKNTNNKISRLLDSLPSDTRLVLLNAIYLSAKWKTTFDPKKTRMEPFHFKNSVIKVPMMNSKKYPVAHFIDQTLKAKVGQLQLSHNLSLVILVPQNLKHRLEDMEQALSPSVFKAIMEKLEMSKFQPTLLTLPRIKVTTSQDMLSIMEKLEFFDFSYDLNLCGLTEDPDLQVSAMQHQTVLELTETGVEAAAASAISVARTLLVFEVQQPFLFVLWDQQHKFPVFMGRVYDPRA
notes: also called construct 2
B2: truncated C1-inhibitor with an N-terminal IgG1 LALA Fc (N-hFcLala-C1-INH Tr) (Fc fusion)
chain: [letters of human IgG1 Fc with changes not shown]GSFCPGPVTLCSDLESHSTEAVLGDALVDFSLKLYHAFSAMKKVETNMAFSPFSIASLLTQVLLGAGENTKTNLESILSYPKDFTCVHQALKGFTTKGVTSVSQIFHSPDLAIRDTFVNASRTLYSSSPRVLSNNSDANLELINTWVAKNTNNKISRLLDSLPSDTRLVLLNAIYLSAKWKTTFDPKKTRMEPFHFKNSVIKVPMMNSKKYPVAHFIDQTLKAKVGQLQLSHNLSLVILVPQNLKHRLEDMEQALSPSVFKAIMEKLEMSKFQPTLLTLPRIKVTTSQDMLSIMEKLEFFDFSYDLNLCGLTEDPDLQVSAMQHQTVLELTETGVEAAAASAISVARTLLVFEVQQPFLFVLWDQQHKFPVFMGRVYDPRA
notes: Effector dead construct; also called Tr C1-INH hFc IgG1 LALA; LALA TR
B3: full length C1-inhibitor with an N-terminal IgG1 Fc (N-hFc-C1-INH) (Fc fusion)
chain: [letters of human IgG1 Fc not shown]NPNATSSSSQDPESLQDRGEGKVATTVISKMLFVEPILEVSSLPTTNSTTNSATKITANTTDEPTTQPTTEPTTQPTIQPTQPTTQLPTDSPTQPTTGSFCPGPVTLCSDLESHSTEAVLGDALVDFSLKLYHAFSAMKKVETNMAFSPFSIASLLTQVLLGAGENTKTNLESILSYPKDFTCVHQALKGFTTKGVTSVSQIFHSPDLAIRDTFVNASRTLYSSSPRVLSNNSDANLELINTWVAKNTNNKISRLLDSLPSDTRLVLLNAIYLSAKWKTTFDPKKTRMEPFHFKNSVIKVPMMNSKKYPVAHFIDQTLKAKVGQLQLSHNLSLVILVPQNLKHRLEDMEQALSPSVFKAIMEKLEMSKFQPTLLTLPRIKVTTSQDMLSIMEKLEFFDFSYDLNLCGLTEDPDLQVSAMQHQTVLELTETGVEAAAASAISVARTLLVFEVQQPFLFVLWDQQHKFPVFMGRVYDPRA
notes: Used as positive control in the FcγRI SPR assay; also called hFc IgG1-C1-INH
B4: full-length C1-inhibitor with an N-terminal IgG1 LALA Fc (N-hFcLala-C1-INH) (Fc fusion)
chain: [letters of human IgG1 Fc with changes not shown]NPNATSSSSQDPESLQDRGEGKVATTVISKMLFVEPILEVSSLPTTNSTTNSATKITANTTDEPTTQPTTEPTTQPTIQPTQPTTQLPTDSPTQPTTGSFCPGPVTLCSDLESHSTEAVLGDALVDFSLKLYHAFSAMKKVETNMAFSPFSIASLLTQVLLGAGENTKTNLESILSYPKDFTCVHQALKGFTTKGVTSVSQIFHSPDLAIRDTFVNASRTLYSSSPRVLSNNSDANLELINTWVAKNTNNKISRLLDSLPSDTRLVLLNAIYLSAKWKTTFDPKKTRMEPFHFKNSVIKVPMMNSKKYPVAHFIDQTLKAKVGQLQLSHNLSLVILVPQNLKHRLEDMEQALSPSVFKAIMEKLEMSKFQPTLLTLPRIKVTTSQDMLSIMEKLEFFDFSYDLNLCGLTEDPDLQVSAMQHQTVLELTETGVEAAAASAISVARTLLVFEVQQPFLFVLWDQQHKFPVFMGRVYDPRA
notes: Effector dead construct; also called FL C1-INH hFc IgG1 LALA; LALA FL
B5: full-length C1-inhibitor with an N-terminal IgG4 S241P Fc (N-hFcIgG4m-C1-INH) (Fc fusion)
chain: [letters of human IgG4 Fc with S228P (EU numbers) not shown]NPNATSSSSQDPESLQDRGEGKVATTVISKMLFVEPILEVSSLPTTNSTTNSATKITANTTDEPTTQPTTEPTTQPTIQPTQPTTQLPTDSPTQPTTGSFCPGPVTLCSDLESHSTEAVLGDALVDFSLKLYHAFSAMKKVETNMAFSPFSIASLLTQVLLGAGENTKTNLESILSYPKDFTCVHQALKGFTTKGVTSVSQIFHSPDLAIRDTFVNASRTLYSSSPRVLSNNSDANLELINTWVAKNTNNKISRLLDSLPSDTRLVLLNAIYLSAKWKTTFDPKKTRMEPFHFKNSVIKVPMMNSKKYPVAHFIDQTLKAKVGQLQLSHNLSLVILVPQNLKHRLEDMEQALSPSVFKAIMEKLEMSKFQPTLLTLPRIKVTTSQDMLSIMEKLEFFDFSYDLNLCGLTEDPDLQVSAMQHQTVLELTETGVEAAAASAISVARTLLVFEVQQPFLFVLWDQQHKFPVFMGRVYDPRA
notes: Effector dead construct; also called N-IgG4m-C1-INH; FL C1-INH hFc IgG4m
B6: truncated C1-inhibitor with an N-terminal IgG4 S241P Fc (N-hFcIgG4m-C1-INH Tr) (Fc fusion)
chain: [letters of human IgG4 Fc with S228P (EU numbers) not shown]GSFCPGPVTLCSDLESHSTEAVLGDALVDFSLKLYHAFSAMKKVETNMAFSPFSIASLLTQVLLGAGENTKTNLESILSYPKDFTCVHQALKGFTTKGVTSVSQIFHSPDLAIRDTFVNASRTLYSSSPRVLSNNSDANLELINTWVAKNTNNKISRLLDSLPSDTRLVLLNAIYLSAKWKTTFDPKKTRMEPFHFKNSVIKVPMMNSKKYPVAHFIDQTLKAKVGQLQLSHNLSLVILVPQNLKHRLEDMEQALSPSVFKAIMEKLEMSKFQPTLLTLPRIKVTTSQDMLSIMEKLEFFDFSYDLNLCGLTEDPDLQVSAMQHQTVLELTETGVEAAAASAISVARTLLVFEVQQPFLFVLWDQQHKFPVFMGRVYDPRA
notes: Effector dead construct; also called N-IgG4m-C1-INH Tr; Tr C1-INH hFc IgG4m

Key:
rhC1s [1] = target: T1, rhC1s; assay: inhibition of rhC1s cleavage of a colorimetric peptide substrate, average OD; concentrations from mass spec sizes; C is the midpoint of the 4-parameter fit [panel A]
rhC1s [2] = target: T1, rhC1s; assay: inhibition of rhC1s cleavage of a colorimetric peptide substrate, average OD; concentrations from gel estimated sizes; C is the midpoint of the 4-parameter fit [panel B]
biotin-C1s = target: T2, biotin-C1s; assay: functional ELISA of the C1s/C1-INH complex: diluted C1-INH with biotin-C1s, captured on a streptavidin plate, anti-C1-INH-HRP, OD450; C is the midpoint of the 4-parameter fit
Method: This method was used to test the effector dead Fc constructs made for PK studies FIG. 8. The ELISA protocol was as follows: [0334] 60 μL diluted C1-INH+12 μL biotin-C1s [0335] 30 min incubation at RT [0336] Transfer 50 μL of complexes to streptavidin coated plate [0337] 10 min incubation at RT, wash 5× [0338] Add 50 μL of anti-C1-INH-HRP [0339] 60 min incubation at RT, wash 5× [0340] Add 100 μL of TMB substrate [0341] 15 minute incubation at RT [0342] […] Read at OD450

[3] = target: T3, Fc neonatal receptor (FcRn), extracellular domain; assay: SPR (Biacore), FcRn amine-coupled to CM5, running buffer pH 6.0
T3 construct: extracellular domain
Method: Binding to the extracellular domain of the FcRN was measured by surface plasmon resonance (SPR) using a Biacore system.
Direct immobilization with FcRn was achieved via amine coupling of a CM5 chip with FcRn under the following conditions: [0291] FcRn (Sino Biological Inc or in-house BD1) is diluted in Acetate buffer pH 5.0 (Cat#BR-1003-51) to 10 μg/mL. [0292] Flow rate: 10 μl/min [0293] Final coupling signal 354 Ru [0294] Running buffer: PBS-P+, pHed to 6.0
The kinetic binding study was done using the following protocol. Samples were diluted in PBS-P+ to 100, 50, 25, 12.5, 6.25, 3.125, 0 nM. The parameters were set as follows: [0296] Association 300 s and Dissociation 600 s at Flow rate 30 μL/min [0297] Regeneration with 25 mM Tris, 150 mM NaCl pH 8.0

[4] = target: T4, FcγRI, extracellular domain; assay: SPR (Biacore), FcγRI captured by anti-His on CM5
T4 construct: extracellular domain; also called FcγR1; FcgR1
Method: Binding to the extracellular domain of the FcγR1 was measured by surface plasmon resonance (SPR) using a Biacore system. The Biacore capture approach is depicted in FIG. 7. The assay setup was as follows: [0314] HBS-P+ used as running buffer [0315] Coupling anti-His (GE, anti-His Kit) on CM5 to 16000 Ru
Sample Preparation [0319] […] Other samples (N-hFcIgG4m-C1 Inh, N-hFcIgG4m-C1-INH Tr, N-hFcLala-C1-INH and N-hFclala-C1-INH Tr) are diluted in HBS-P+ buffer to 100, 50, 25, 12.5, 6.25 nM

T4 sequence (P12314 16-292): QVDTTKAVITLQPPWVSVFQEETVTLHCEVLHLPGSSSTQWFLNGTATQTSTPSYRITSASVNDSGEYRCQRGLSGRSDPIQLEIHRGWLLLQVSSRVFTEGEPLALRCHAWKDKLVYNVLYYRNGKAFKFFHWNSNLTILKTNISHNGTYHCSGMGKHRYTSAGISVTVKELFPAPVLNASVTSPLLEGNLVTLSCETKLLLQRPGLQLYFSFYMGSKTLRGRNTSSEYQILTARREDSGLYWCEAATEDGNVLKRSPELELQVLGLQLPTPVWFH

| IC50 (rhC1s [1]) [nM] | IC50 (rhC1s [2]) [nM] | EC50 (biotin-C1s) [nM] | Kd [3] [nM] | koff [3] [s⁻¹] | kon [3] [M⁻¹ s⁻¹] | Kd [4] [nM] | koff [4] [s⁻¹] | kon [4] [M⁻¹ s⁻¹] | Binder |
| --- | --- | --- | --- | --- | --- | --- | --- | --- | --- |
| 6.64 | 5.68 | – | – | – | – | – | – | – | B1 |
| 1.08 | 0.921 | 3.43 | – | – | – | – | – | – | B2 |
| 0.612 | 0.437 | – | – | – | – | – | – | – | B3 |
| 0.744 | 0.531 | 0.834 | – | – | – | – | – | – | B4 |
| 0.718 | 0.513 | 0.958 | 30 | 0.00562 | 187000 | 23.1 | 0.00167 | 72300 | B5 |
| 1.81 | 1.55 | 3.65 | 70.7 | 0.00946 | 134000 | 7.28 | 0.000862 | 118000 | B6 |
